# Reference: PubChem BioAssay AID686971 (National Center for Advancing Translational Sciences (NCATS), 2013)
# Hit rate of the full screen: of about 360,000 compounds, about 7,500 (2.1%) were called active. Inconclusive means that the source gave no clear call. Such entries were picked first, then a sample of the others. Calls come from the whole dose curve; as a rule, active = well fitted cell-killing curve with a large enough effect; inconclusive = small, poorly fitted or top-dose-only effect, or effect the other way, or another doubt; inactive = no such curve, though single readings can be large or run the other way. No potency is given beside an inconclusive call; the fits are too rough.
# Test: qHTS for induction of synthetic lethality in tumor cells producing 2HG: qHTS for the HT-1080-IDH1KD cell line;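 for activity, negative = toxicity: 0% = DMSO wells and -100% = cell-free medium wells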
# Settings: HT-1080 IDH1 knockdown viability, ATP luminescence, 48 h; activity, negative = toxicity: at 46.1 µM (top of the series) unless noted
# Summary of the method: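 Viability of IDH1-knockdown HT-1080 fibrosarcoma cells was assessed by CellTiter-Glo after 48 h at 37 °C with titrated compound; concentration-effect curves were classified by fit quality and response size.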
# Potency is the fitted concentration of half-maximal effect; tags give direction and shape of the fitted curve.
SMILES,Potency,"activity, negative = toxicity"
COc1ccccc1-c1cc2nc(NCCOc3ccccc3)ccn2n1,"inconclusive [cytotoxic, single point]",–
C=CCN(C(=O)c1csnn1)C(C(=O)NCc1ccc(F)cc1)c1ccc(F)cc1 (centres undefined),"inconclusive [cytotoxic, partial curve]",–
COc1ccc(N(C)C(=O)c2oc(=O)c3ccccc3c2-c2ccc(C)cc2)c(OC)c1,"inconclusive [cytotoxic, single point]",–
O=C(/C=C/c1ccc2c(c1)OCO2)NCCS(=O)(=O)N1CCN(c2ccccc2)CC1,active: 7.31 µM,–
CC1CCC2(CC1)NC(=O)N(CC(=O)NCc1ccc(F)cc1)C2=O (centres undefined),–,inactive: 0.403%
CC1CCCN(c2ccc([N+](=O)[O-])cc2C(=O)c2ccccc2)C1 (centres undefined),active: 2.91 µM,–
C=CCn1c2ccccc2c2nnc(SCCCn3c(=O)[nH]c4ccccc43)nc21,active: 16.4 µM,–
O=C(NCC(O)c1ccc([N+](=O)[O-])cc1)Nc1ccccc1 (centres undefined),–,inactive: 0.195%
CC1(C)C(CSc2nc3ccccc3[nH]2)C1(Cl)Cl (centres undefined),"inconclusive [cytotoxic, partial curve]",–
CCC(Sc1ccc2nnc(-c3ccc(F)cc3)n2n1)C(=O)OC (centres undefined),"inconclusive [cytotoxic, partial curve]",–
CCCCNC(=S)NNc1c(Cl)cc(Cl)cc1Cl,"inconclusive [cytotoxic, partial curve]",–
Cc1cc(C)n2nc(SCC(=O)N3CCCCC3C)nc2n1 (centres undefined),–,inactive: 3.1%
CN(c1ccccc1)c1ccc(/C=C(\C#N)c2nnc3n2CCCCC3)cc1[N+](=O)[O-],"inconclusive [cytotoxic, single point]",–
CCOc1ccc(C(=O)NCC(=O)N2CCC3(CC2)NCCc2[nH]cnc23)cc1,"inconclusive [rising, single point]",–
CC(C(=O)c1ccc(-c2ccccc2)cc1)[n+]1cccc(NC(=O)c2ccccc2)c1 (centres undefined),"inconclusive [cytotoxic, single point]",–
CCOc1ccc(C2CC(=O)c3c([nH]c(C(=O)OC)c3C)C2)cc1OC (centres undefined),"inconclusive [cytotoxic, single point]",–
O=C(Nc1ccccc1-c1ccccc1)c1ccc(=O)[nH]n1,"inconclusive [rising, partial curve]",–
COC(=O)c1ccc(NC(=O)c2cccnc2)cc1,"inconclusive [cytotoxic, single point]",–
N#C/C(=C\c1cn[nH]c1-c1ccc(Cl)cc1)C(=O)NCc1ccccc1,"inconclusive [cytotoxic, partial curve]",–
O=C(/C=C/NNC(=O)c1ccccc1)c1ccc(Br)cc1,"inconclusive [cytotoxic, single point]",–
C#CCN(C[C@@H]1[C@@H](OC(=O)NCc2ccccc2F)[C@@H](OC(=O)NCc2ccccc2F)Cn2c(=O)ccc(=O)n21)S(=O)(=O)c1ccc(C)cc1,active: 6.51 µM,–
O=C(CCN1c2ccccc2Sc2ccccc21)Nc1ccccc1,"inconclusive [cytotoxic, single point]",–
CC(=NNC(=O)c1ccncc1)c1ccc2ccccc2c1O,active: 5.8 µM,–
COc1ccc(/C=C2\CCc3ccccc3C2=O)cc1Cn1nc(C)cc1C,"inconclusive [cytotoxic, single point]",–
CCN(CC)S(=O)(=O)c1cccc(-c2nnc(SC(C)C#N)n2Cc2ccccc2)c1 (centres undefined),–,inactive: -9.35% [at 9.24 µM]

SMILES,Potency,"activity, negative = toxicity"
Cc1ccc(Nc2cc(-n3nc(C)cc3C)ncn2)cc1,–,inactive: -0.791%
C=CCn1c(O)c(N=Nc2ccccc2O)c2ccccc21,–,inactive: -22.6%
O=C(NCc1ccco1)c1ccc(-c2ccc(F)c(F)c2)c2ccoc12,–,inactive: -21.6%
Cc1nc2ccc(C(=O)NC(C)(C)C)cn2c1N(C)C(=O)CCc1ccccc1,–,inactive: 10.7%
O=C(Nc1cccc(Cl)c1)Nc1nnc(-c2ccncc2)s1,active: 10.3 µM,–
O=C(Nc1nc2c(c(=O)[nH]1)CCCC2)C1CC1,–,inactive: -29.2%
COc1ccc(-n2c(-c3ccc(Cl)cc3)c[nH]c2=S)cc1,–,inactive: -4.43%
Cc1cc2nc3n(c2cc1C)CC1CC(C(=O)NCc2cccc(C(F)(F)F)c2)N(C)C31 (centres undefined),–,inactive: 8.14%
COc1ccc(C=NNC(=O)c2cc(C)oc2C)cc1O,"inconclusive [cytotoxic, partial curve]",–
Cc1ccc(NC(=O)CC2Nc3ccccc3NC2=O)cc1Cl (centres undefined),active: 20.6 µM,–
COc1ccc(CNCCC(c2ccc(OC(C)C)cc2)c2ccccc2OC)cc1 (centres undefined),"inconclusive [cytotoxic, single point]",–
COc1cc(OC)c2c(-c3cccc(-c4ccc(O)cc4)c3)cc(=O)oc2c1,"inconclusive [cytotoxic, partial curve]",–
CC1=NN(c2cccc(F)c2)C(=O)/C1=C/c1ccc(N(C)C)cc1,–,inactive: -2.24%
Cc1cc(N/N=C/c2ccc(F)cc2)nc(NCc2ccccc2)n1,active: 16.4 µM,–
CCOC(=O)[C@]12CCCC=C1N(Cc1cccc3ccccc13)C(=O)[C@H](CC(=O)NCC13CC4CC(CC(C4)C1)C3)C2,active: 23.1 µM,–
CO/N=C/c1ccc(Oc2ccc([N+](=O)[O-])cc2[N+](=O)[O-])c(OC)c1,"inconclusive [cytotoxic, single point]",–
CC(=O)Nc1ccc(NC(=O)COC(=O)C2(c3ccc(Cl)cc3)CCCC2)cc1,"inconclusive [cytotoxic, single point]",–
CCOC(=O)C(=O)NN=C(c1ccccc1)c1ccccc1,–,inactive: 12.7%
COc1ccc(C(=O)n2c(-c3ccco3)nc3ccccc32)cc1,active: 5.8 µM,–
CCCn1c(NCc2c[nH]c3ccccc23)nc2ccccc21,–,inactive: -9.49%
CC(C)c1c(C(=O)N/N=C/c2cccc3ccccc23)nnn1-c1nonc1N,–,inconclusive: -32.5% [cytotoxic]
C=CCn1c(-c2cccn(Cc3ccc(Cl)cc3)c2=O)n[nH]c1=S,"inconclusive [cytotoxic, single point]",–
Cc1ccc2c(c1)N1C(=O)c3ccccc3C1C1=C(CC(C)(C)CC1=O)N2 (centres undefined),–,inactive: -4.37%
CCOc1cc(S(=O)(=O)Nc2ccc(CC)cc2)ccc1Cl,"inconclusive [cytotoxic, single point]",–
COc1cc(CCC(=O)Nc2nnc(C)s2)cc(OC)c1OC,active: 7.31 µM,–

SMILES,Potency,"activity, negative = toxicity"
COC(=O)c1cc(CN2CCN(c3ccccc3C)CC2)ccc1O,"inconclusive [cytotoxic, single point]",–
CN1C(=O)C2(c3ccccc31)C1CCCC=C1C(C#N)=C(N)C2(C#N)C#N (centres undefined),"inconclusive [cytotoxic, partial curve, poor fit]",–
CCc1cccc2c(C(=O)COC(=O)c3c(C)noc3C)c[nH]c12,"inconclusive [cytotoxic, single point]",–
Cn1cccc1C(=O)N/N=C/c1c(Cl)cccc1Cl,–,inactive: 0.317%
CCOc1ccc(CCNC(=O)c2cc3c(C)nccc3[nH]c2=O)cc1OCC,–,inconclusive: -13.6% [cytotoxic]
CCCN1CCC(=O)N(CCSc2ccc(C)cc2)CC1,–,inactive: 5.59%
COC(=O)C[C@@H]1C=C[C@H](NC(=O)Nc2ccc(F)cc2)[C@@H](CO)O1,"inconclusive [rising, single point]",–
COc1ccc(-c2cc(C(F)F)n3ncc(C(=O)N4CCc5ccccc54)c3n2)cc1,active: 2.91 µM,–
CCCc1cc(=O)n2[nH]c(-c3ccc(Br)cc3)cc2n1,"inconclusive [cytotoxic, single point]",–
COc1ccccc1C(CCNCc1ccccc1)c1ccc(OC(C)C)cc1 (centres undefined),"inconclusive [cytotoxic, single point]",–
COc1ccc(N(C(=O)CCl)C(C(=O)NCCc2ccccc2)c2cccs2)cc1 (centres undefined),active: 1.64 µM,–
Cc1ccc(CN2CCN(CC(=O)NCCCN3CCN(c4ccc(F)cc4)CC3)C2=O)cc1,"inconclusive [cytotoxic, single point]",–
CCCCC(=O)N(C)c1c(CC)nc2c(OCc3ccc(C(F)(F)F)cc3)cccn12,"inconclusive [cytotoxic, single point]",–
Cc1ccc(C(=O)Nc2nc(-c3ccco3)c(-c3ccco3)s2)o1,–,inactive: -3.54%
C/[N+]([O-])=C\c1ccc([N+](=O)[O-])o1,"inconclusive [cytotoxic, partial curve, poor fit]",–
CCOC(=O)c1ccc(NC(=O)c2sc3nc4n(c(=O)c3c2C)CCC4)cc1,"inconclusive [rising, single point]",–
COc1cccc(OC)c1C(=O)Nc1ccc(CN2CCCCC2)cc1,–,inactive: 3.67%
c1ccc(Oc2c3ccccc3nc3ccccc23)cc1,"inconclusive [cytotoxic, single point]",–
CCOc1ccc2oc(-c3ccccc3)c(C(N)=O)c2c1,–,inactive: -2%
CCCCn1c(N)c(N(CCOC)C(=O)c2oc3ccc(OCC)cc3c2C)c(=O)[nH]c1=O,–,inactive: 6.97%
CC1CN(C(=O)CCC(=O)NCCCN2CCC(Cc3ccccc3)CC2)c2cc(Cl)ccc2O1 (centres undefined),active: 16.4 µM,–
COc1cc(C(=O)NCC(=O)N2CCN(S(=O)(=O)c3cc(C)ccc3C)CC2)cc(OC)c1OC,active: 6.51 µM,–
Cn1cccc1-c1cc(C(=O)N/N=C/c2cc(Br)ccc2O)[nH]n1,"inconclusive [cytotoxic, full curve]",–
COc1ccc(CN2CCN(Cc3csc(C(C)=O)c3)CC2CCO)c(C)c1C (centres undefined),–,inconclusive: -20.8% [cytotoxic]
